Results: PubChem BioAssay AID686978 (National Center for Advancing Translational Sciences (NCATS), 2013)
Among all 420,000 compounds or so, about 64,000 (15%) were called active. This list was built around the results that the source calls inconclusive (neither active nor inactive); the mix of calls is not that of the screen. Calls follow the shape of the dose curve; as a rule, active = well fitted inhibition curve with a large enough effect; inconclusive = small, poorly fitted or top-dose-only effect; inactive = flat fitted curve, though single readings scatter. No potency is given beside an inconclusive call; the fits are too rough.

Experiment: qHTS for Inhibitors of human tyrosyl-DNA phosphodiesterase 1 (TDP1): qHTS in cells in absence of CPT; also: nearly all actives have a fitted effect of over 55% in size
Details: DT40 Tdp1-/- hTDP1 cells, no CPT, ATP luminescence, 48 h; series mostly up to 46.2 µM
Outline: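 Growth of hTDP1-complemented DT40 Tdp1-knockout cells is measured by ATP luminescence after at least 48 hr compound exposure at 37 °C, with DMSO substituting for the 20 nM CPT used in the parallel screen.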
Potency is read from the fitted curve at half-maximal effect; tags tell the direction and shape of the fitted curve.

| Structure (SMILES) | Potency |
| --- | --- |
| CCOC(=O)C(CCc1ccccn1)c1ccccc1 (stereo unspecified) | inconclusive [inhibitor, single point] |
| CCOC(=O)c1ccc(NC(=S)NCc2ccccc2)cc1 | inconclusive [inhibitor, partial curve, poor fit] |
| COc1ccc(C(=O)C2CCN(C(=O)c3ccc(OC)cc3)CC2)cc1 | inconclusive [inhibitor, single point] |
| O=C(COC(=O)COc1ccccc1[N+](=O)[O-])NCc1ccc2c(c1)OCO2 | inactive |
| CCOC(=O)[C@]12CCCC=C1N(Cc1ccc3c(c1)OCO3)C(=O)[C@H](CC(=O)N1CCN(C(=O)C3CC3)CC1)C2 | inconclusive [inhibitor, single point] |
| CCN(CCCNC(=O)CCCOc1cc(=O)n(C)c2ccccc12)Cc1ccccc1 | inconclusive [inhibitor, single point] |
| CCc1ccc(Nc2nnc(-c3cc4cc(OC)ccc4oc3=O)s2)cc1 | inconclusive [inhibitor, full curve] |
| Cn1c(NC(=O)c2cccnc2)nc2ccccc21 | inconclusive [inhibitor, single point] |
| NS(=O)(=O)c1ccc(CCNC(=O)c2ccc3nc4ccc(Cl)cc4c(=O)n3c2)cc1 | inconclusive [inhibitor, partial curve, poor fit] |
| CCOC(=O)CC1C(=O)NCCN1S(=O)(=O)c1cc(Cl)c(Cl)cc1Cl (stereo unspecified) | inconclusive [inhibitor, partial curve] |
| CCc1c(C)nc(SCc2nc(-c3ccccc3C)no2)[nH]c1=O | inconclusive [inhibitor, partial curve, poor fit] |
| Cc1[nH]n(-c2ccccc2)c(=O)c1N=Nc1ccccc1C(=O)N1CCCCC1 | inactive |
| Cc1ccc(NC2=C(CC(=O)O)C(c3ccccc3)N(c3ccc(C)cc3)C2=O)cc1 (stereo unspecified) | inconclusive [inhibitor, single point] |
| CC1C(=O)N(Cc2ccccc2F)c2ccccc2N1C(=O)c1c(F)cccc1F (stereo unspecified) | active: 18.4 µM |
| CCN(C(=O)Cc1c(C(=O)O)c(C)cn1C)c1cccc(Cl)c1 | inactive |
| Cc1cc(SCC(=O)Nc2ccc(O)cc2)n2ncc(-c3ccccc3)c2n1 | inactive |
| Cc1cccc(C)c1NC(=O)C(c1ccccc1OC(F)(F)F)N1CCN(C)CC1 (stereo unspecified) | inactive |
| COc1c2ccc(OCC/C(C)=C/C(=O)C=C(C)C)cc2nc2occc12 | inconclusive [inhibitor, single point] |
| CN(CC(=O)Nc1ccc(N2CCOCC2)cc1)C(=O)CC(c1ccccc1)c1ccccc1 | inactive |
| COc1ccc(OC)c(CNc2ncnc3c2nc2n3CCCC2)c1 | inconclusive [inhibitor, partial curve] |
| C=CCSc1nc(-c2ccc3c(c2)OCO3)cc(C(F)(F)F)c1C#N | inconclusive [inhibitor, partial curve, poor fit] |
| CN(C(=O)CN1C(=O)/C(=C/c2ccc(F)cc2)SC1=S)C1CCS(=O)(=O)C1 (stereo unspecified) | inconclusive [inhibitor, single point] |
| CC(C)NC(=O)Nc1cccc2c1O[C@H](CN(C)C(=O)Nc1ccc(C(F)(F)F)cc1)[C@@H](C)CN([C@H](C)CO)C2=O | inactive |

| Structure (SMILES) | Potency |
| --- | --- |
| CC[C@@H]1Cc2[nH][nH]c(=O)c2[C@@H](c2ccc(Cl)cc2)O1 | inactive |
| O=C1NC(C(=O)O)=CC(c2cccc(Cl)c2Cl)N1 (stereo unspecified) | inactive |
| COc1ccc(F)cc1C(=O)C1CCCN(C(=O)CCN2CCCCO2)C1 (stereo unspecified) | inactive |
| COc1cc(NC(=O)C(NS(=O)(=O)c2ccc3c(c2)CCCC(=O)N3)C(C)C)cc(OC)c1 (stereo unspecified) | inactive |
| COc1ccc(/C=C2\CCCC(C(=O)C(F)(F)F)=C2O)cc1 | inconclusive [inhibitor, partial curve] |
| CC(C)C(NC(=O)c1c(F)cccc1F)C(=O)N1CCN(S(=O)(=O)c2ccc(F)cc2)CC1 (stereo unspecified) | inactive |
| CN(C)CCNS(=O)(=O)c1ccc(N2CCN(c3ccc(F)cc3)CC2)c([N+](=O)[O-])c1 | active: 13 µM |
| COc1ccc(C(=O)Nc2c(O)ccc3ccccc23)cc1 | inconclusive [inhibitor, single point] |
| COc1ccc(Br)cc1CN(C)C(=O)c1cnc(C)cn1 | inactive |
| Cc1cc(=O)[nH]c(-n2ncc(C#N)c2N)n1 | inactive |
| CC(C)(C)c1cn(-c2ccc(Cl)cc2)c(=S)[nH]1 | inconclusive [inhibitor, single point] |
| NC1=NC[C@H](c2ccccc2)N1CCc1cc(C(F)(F)F)cc(C(F)(F)F)c1 | active: 20.6 µM |
| CC[N+]1(CC(=O)c2cccs2)CCCCC1 | inconclusive [inhibitor, partial curve, poor fit] |
| COc1ccc(S(=O)(=O)N2CCN(CCOc3ccccc3Cl)CC2)cc1OC | inconclusive [inhibitor, single point] |
| Cc1cccc(C)c1OCc1nnc(SCC(=O)Nc2nccs2)n1-c1ccccc1 | active: 5.8 µM |
| CCC(=O)Nc1ccc2nc(SCC(=O)N3CCOCC3)sc2c1 | inactive |
| COc1cc(CC(=O)NCC(C)(C)N2CCOCC2)cc(OC)c1OC | inactive |
| CCn1nc(C(=O)Nc2cccc(S(=O)(=O)N3CCCC3)c2)c2ccccc2c1=O | inconclusive [inhibitor, single point] |
| CCCn1c(=N)n(CC(O)c2ccc(C)cc2)c2ccccc21 (stereo unspecified) | active: 23.1 µM |
| COc1ccc(CCN(C)C(=O)c2cccc(S(=O)(=O)NCc3ccccc3)c2)cc1OC | inconclusive [inhibitor, single point] |
| Cc1ccc(CNC(=O)c2cc(S(=O)(=O)N3CCCCC3)ccc2N2CCOCC2)cc1 | active: 18.4 µM |
| Cc1c(C(=O)NCc2cccnc2)sc2nc(-c3ccccc3)cn12 | active: 16.4 µM |
| CC[C@H](C)[C@H](NC(=O)c1ccc(Cl)cc1)C(=O)OCC(=O)c1ccc2c(c1)NC(=O)CO2 | inconclusive [inhibitor, single point] |
